Target: T1, human APJ receptor (hAPJ) (human, UniProt P35414 1-380)
T1 sequence (looked up): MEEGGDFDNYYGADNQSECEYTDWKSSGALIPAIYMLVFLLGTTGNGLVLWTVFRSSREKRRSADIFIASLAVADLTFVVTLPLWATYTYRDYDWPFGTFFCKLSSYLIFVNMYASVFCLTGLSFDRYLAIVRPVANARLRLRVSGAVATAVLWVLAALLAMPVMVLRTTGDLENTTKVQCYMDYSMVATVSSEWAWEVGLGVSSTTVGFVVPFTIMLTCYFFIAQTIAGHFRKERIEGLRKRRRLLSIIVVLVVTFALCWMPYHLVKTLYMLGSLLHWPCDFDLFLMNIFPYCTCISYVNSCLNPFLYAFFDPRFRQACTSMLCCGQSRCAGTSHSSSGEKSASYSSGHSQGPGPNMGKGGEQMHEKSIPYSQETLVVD
Assay: cell-based or functional assay

B1: Example 15 Fc-Apelin fusion (Fc fusion)
chain: [skipping human IgG1 Fc with changes]AGGGGSGGGGSGGGGSQRPRLCHKGPMC
modifications: disulfide between the two C* cysteines of the apelin part
  hAPJ Ca2+ Flux EC50: 13.6 nM

B2: Example 9 Fc-Apelin fusion (Fc fusion)
chain: [skipping human IgG1 Fc with changes]AGGGGSGGGGSGGGGSQRPRLCHKGPMCF
modifications: disulfide between the two C* cysteines of the apelin part
  hAPJ Ca2+ Flux EC50: 7.9 nM

B3: Example 5 Fc-Apelin fusion (Fc fusion)
chain: [skipping human IgG1 Fc with changes]GGGGSGGGGSGGGGSQRPRLSHKGPMPF
  hAPJ Ca2+ Flux EC50: 8.4 nM
